# Paper PMC4336329 (PLoS ONE, 2015)
# About 14,000 (4.5%) of roughly 310,000 compounds showed an effect of 50% or more. The effect is printed as a negative number. Some of the results follow.
# Biological target: human ether-à-go-go-related gene (hERG) potassium channel (human, UniProt Q12809)
# Experiment: primary screen, population patch clamp on CHO cells stably expressing hERG
# 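Note: peak tail current of the secondary pulse compared with the same well before compound.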
# human ether-à-go-go-related gene (hERG) potassium channel, sequence (Q12809 whole entry, looked up): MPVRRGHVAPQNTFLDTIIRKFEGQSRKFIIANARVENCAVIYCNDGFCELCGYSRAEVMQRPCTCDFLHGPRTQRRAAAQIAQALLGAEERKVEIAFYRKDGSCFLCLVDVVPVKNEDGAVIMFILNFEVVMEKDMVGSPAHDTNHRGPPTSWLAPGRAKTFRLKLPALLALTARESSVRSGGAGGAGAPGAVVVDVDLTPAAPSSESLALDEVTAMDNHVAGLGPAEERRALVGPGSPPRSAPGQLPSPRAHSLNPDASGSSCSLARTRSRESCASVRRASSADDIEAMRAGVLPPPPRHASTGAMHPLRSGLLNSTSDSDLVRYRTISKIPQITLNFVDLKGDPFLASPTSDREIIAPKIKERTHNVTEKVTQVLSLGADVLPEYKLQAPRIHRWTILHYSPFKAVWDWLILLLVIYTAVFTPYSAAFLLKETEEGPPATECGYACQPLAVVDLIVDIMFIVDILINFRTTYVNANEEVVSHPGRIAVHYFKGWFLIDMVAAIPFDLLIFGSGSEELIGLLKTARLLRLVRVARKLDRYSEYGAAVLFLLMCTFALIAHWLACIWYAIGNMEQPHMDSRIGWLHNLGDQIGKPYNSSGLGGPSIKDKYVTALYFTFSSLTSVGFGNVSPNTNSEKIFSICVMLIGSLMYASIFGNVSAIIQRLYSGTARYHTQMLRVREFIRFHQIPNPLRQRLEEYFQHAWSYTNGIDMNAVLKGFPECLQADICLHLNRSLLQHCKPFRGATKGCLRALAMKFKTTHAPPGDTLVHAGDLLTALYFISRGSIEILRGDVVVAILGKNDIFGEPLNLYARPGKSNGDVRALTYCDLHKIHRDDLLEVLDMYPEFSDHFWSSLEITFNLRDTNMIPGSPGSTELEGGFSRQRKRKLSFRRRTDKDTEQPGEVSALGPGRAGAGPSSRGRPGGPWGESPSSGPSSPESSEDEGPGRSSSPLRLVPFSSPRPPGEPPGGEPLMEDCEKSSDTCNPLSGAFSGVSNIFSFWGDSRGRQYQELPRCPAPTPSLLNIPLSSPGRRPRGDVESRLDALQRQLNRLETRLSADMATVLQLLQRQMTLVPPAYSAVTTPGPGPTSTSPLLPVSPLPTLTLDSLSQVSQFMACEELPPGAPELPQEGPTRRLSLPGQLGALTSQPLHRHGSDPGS
row,Structure (SMILES),"hERG current change (%, negative = inhibition) at 10uM [%]"
1,CC(=O)c1cccc(N2C(=O)Nc3ccccc3N2O)c1,17
2,O=C(CSc1nnc(Cc2ccccc2)o1)NCCN1C(=O)CSC1=O,10.7
3,Clc1cccc(/C=N/Nc2nc(Cl)nc3ccccc23)c1,-12.7
4,Cc1cccc(C)c1NC(=O)CNC(=O)c1c(C)nn(-c2ccccc2)c1Cl,-16.7
5,COc1ccc(NC(=O)CSc2nnc(-c3ccccn3)n2N)cc1Cl,-2.27
6,COC(=O)[C@H](CCSC)NC(=O)Nc1ccc(OC)c(Cl)c1,-6.64
7,COc1ccc(C)cc1S(=O)(=O)NC(C)c1cnn(-c2ccccn2)c1C (stereo not drawn),0.876
8,O=C(COC(=O)c1cc(S(=O)(=O)N2CCOCC2)ccc1F)Nc1c(Cl)cccc1C(F)(F)F,5.27
9,CCOC(=O)CN1C(=O)/C(=C/c2ccccc2Br)Oc2ccccc21,15.8
10,CC(=O)Nc1ccc(NC(=O)CNS(=O)(=O)c2ccc(C)cc2)cc1,-7.94
11,CC(=O)N/C(=C\c1ccccc1)C(=O)NC(C)C(=O)O (stereo not drawn),22.4
12,COC(=O)c1ccsc1NC(=O)c1ccccc1,-3.27
13,CCN(Cc1ccccc1)S(=O)(=O)c1ccc(C(=O)N(CCCN(C)C)c2nc3c(F)cccc3s2)cc1.Cl,-66.3
14,O=C(COC(=O)c1ccccn1)Nc1nc(-c2cccc([N+](=O)[O-])c2)cs1,-5.17
15,COc1ccccc1-n1c(SCC(=O)NC(C)(C)C)nc(O)cc1=O,2.42
16,Nc1nnc(SCc2ccc([N+](=O)[O-])cc2)s1,-27.3
17,COCOc1ccc(/C=C/C(=O)c2c(O)cc(OCOC)cc2OCOC)cc1,8.63
18,N#C/C(=C(/O)c1ccc(Cl)c([N+](=O)[O-])c1)c1nc2ccccc2[nH]1,10.6
19,CC(=O)COc1cccc2ccc(/C=C/c3ccc(Br)s3)nc12,-0.183
20,Cc1ccc(OCCCC(=O)Nc2nncs2)cc1,8.97
21,O=C(COC(=O)[C@H](Cc1ccccc1)NC(=O)c1ccco1)NCc1ccccc1,-10
22,CCCCOC(=O)Nc1ccc(C)c(Cl)c1,2.24
23,CSc1nc(/C=C2\C=Nc3ccccc32)c(O)n1C,-11.4

row,Structure (SMILES),"hERG current change (%, negative = inhibition) at 10uM [%]"
1,COc1ccc2c(c1)C(=O)C(=O)N2CCS(=O)(=O)c1ccccc1,9.33
2,Cc1ccc(S(=O)(=O)N2CCCCC2)cc1NC(=O)c1ccc(Cl)nc1,-21.5
3,Cc1nc(-c2ccc(NC(=O)Cc3ccccc3)cc2)cs1,21.1
4,CCOC(=O)c1[nH]cnc1C(=O)Nc1ccc(F)cc1,-1.62
5,Cc1onc(-c2ccccc2)c1C(=O)OCCOc1ccccc1F,8.09
6,O=C(Nc1cccc2ccccc12)C1CCN(C(=O)NCc2ccccc2)CC1,6.5
7,O=C(NCCc1ccccc1C(F)(F)F)C1CCC(=O)N(C2CC2)C1 (stereo not drawn),3.04
8,CS(=O)(=O)NCCCNc1ccc(Cl)cc1[N+](=O)[O-],-25.6
9,Clc1ccccc1N1CCN(Cc2ccc(Br)o2)CC1,7.14
10,CSc1cc(C)[nH]c(=O)n1,7.05
11,O=C(c1ccco1)N1CCN(c2nc(C(F)(F)F)nc3c2nnn3Cc2ccccc2)CC1,-15.2
12,CCCc1cc(=O)[nH]c(Nc2ccc(N3CCCCC3)cc2)n1,-38.6
13,COc1cc(OC)c(NC(=S)Nc2cccc(C(C)=O)c2)cc1Cl,6.61
14,O=C(/C=C/c1ccccc1)NC(=S)Nc1ccccc1C(=O)NC1CCCCC1,3.99
15,CCOCCCNC(=O)c1ccc(C2SCC(=O)N2Cc2ccccc2)cc1 (stereo not drawn),4.12
16,CCCC(=O)OC1CC(C)N(C(=O)c2ccccc2)c2ccc(C)cc21 (stereo not drawn),-25.5
17,O=C(NC(=S)Nc1ccccc1N1CCN(C(=O)c2ccccc2)CC1)c1cccs1,9.73
18,O=C(NCc1ccccn1)c1cccc(NS(=O)(=O)c2ccc(Br)cc2)c1,-19.8
19,COc1ccccc1CN1C[C@@H]2C[C@@H](c3ccccc3OC)N3CCC[C@@]23C1=O,-14
20,CC(Oc1ccccc1)C(=O)NC1C(=O)N2C1SC(C)(C)C2C(=O)[O-].[K+] (stereo not drawn),35.9
21,COc1cccc(-n2nnc3c(=O)n(Cc4ccc(C)cc4)cnc32)c1,9.97
22,Cc1cc(NC(=O)CCC(=O)N(Cc2ccco2)C2(C(=O)NC3CCCCC3)CCCCC2)no1,-6.99
23,Cc1cc(NC(=O)Cn2nc([N+](=O)[O-])c(Br)c2C)no1,8.77

row,Structure (SMILES),"hERG current change (%, negative = inhibition) at 10uM [%]"
1,CCCCOC(=O)C1CN(c2ccccc2)N=C1C(C)=O (stereo not drawn),12.9
2,CCCC1(C(=O)OC)NC(c2ccco2)C2C(=O)N(c3ccc(C)cc3)C(=O)C21 (stereo not drawn),10.2
3,Cc1ccc(Nc2cc(C)nc3ncnn23)c(C)c1,15.1
4,O=C(Nc1ccccc1)Nc1nnc(-c2cccs2)s1,10.1
5,Cc1ccccc1C(=O)NC1CCN(Cc2nnnn2C2CCCC2)CC1,3.85
6,O=C(CN(C(=O)CNC(=O)c1cccs1)c1ccc2c(c1)OCCO2)NC1CCCC1,-16.9
7,CCN(CC)c1ccc(C2NC(=O)NC(C)=C2C(=O)Nc2ccccc2)cc1 (stereo not drawn),5.48
8,Cl.NC(Cc1ccc2nsnc2c1)C(=O)O (stereo not drawn),5.45
9,O=C(C1CCC(=O)N(C2CCCC2)C1)N1CCC(Oc2cccc(F)c2)CC1 (stereo not drawn),-6.61
10,COC(=O)c1[nH]c(C)c(/C(O)=C2\C(=O)C(=O)N(CCN3CCOCC3)C2c2ccco2)c1C (stereo not drawn),15.6
11,O=C(Nc1cccc(OC(=O)c2ccco2)c1)c1ccco1,3.77
12,CCOCCOc1nc2c(c(=O)n(C)c(=O)n2C)n1Cc1ccc(C)cc1,-10.1
13,O=C(O)CSc1sc(=S)sc1SCC(=O)O,13.7
14,COc1cccc(CNC(=O)CCC(=O)N2CCSc3ccccc32)c1OC,4.66
15,CC(=O)C1(O)C(C)CC2C3CCC4CC(O)CCC4(C)C3=CCC21C (stereo not drawn),12.3
16,CCOC(=O)N1CCc2c(sc3nc4n(c(=O)c23)N=C(C)CS4)C1,-5.12
17,COc1ccc(NC(=O)CNS(=O)(=O)c2cccs2)cc1,-5.7
18,O=C(NCc1ccc2[nH]c3c(c2c1)CCCC3)c1ccc(S(=O)(=O)N2CCCCC2)cc1,16.7
19,CN(C)C=O.O=C(/C=C/c1cccs1)Nc1ccc(N2CCOCC2)c(S(=O)(=O)Nc2cc(Cl)ccc2Cl)c1,10.1
20,COc1cc2ccccc2cc1C(=O)N1CCN(C)CC1.Cl,-7.56
21,O=C(NNC(=O)C1CC1c1ccccc1)c1ccccc1F (stereo not drawn),27.5
22,Cc1ccc(NC(=O)CCc2nc3ccccc3c(=O)[nH]2)cc1S(=O)(=O)N1CCOCC1,-27.2
23,CCCC(CCC)C(=O)Nc1ccncc1,-6.67

row,Structure (SMILES),"hERG current change (%, negative = inhibition) at 10uM [%]"
1,CC(=O)Nc1ccc(NS(C)(=O)=O)cc1,12.8
2,COC(=O)c1nc2ccc(N3CCOCC3)cc2c(C)c1C(=O)OC,7.43
3,Cc1ccc(CNC(=O)Nc2ccc(C)cc2)cc1,3.58
4,CN1CCN(CCC(=O)Nc2ccc3c(c2)OCO3)CC1,1.57
5,Cc1cc(NC(=O)C2CCC2)n(-c2ccccn2)n1,-5.34
6,Cc1cccc(NC(=O)NC(=O)c2ccccc2)n1,-7.58
7,CCOc1ccccc1Nc1ncccc1C(=O)O,3.32
8,CCOC1=CC(=O)N(Cc2ccccc2)C1,5.93
9,NC(=O)CSc1ncnc2c1nnn2Cc1ccc(F)cc1,9.97
10,COC(=O)[C@H]1C[C@@H](c2ccccc2)[C@H](C)C1(C)C,9.99
11,CCOc1ccc2oc(C(=O)Nc3ccc(N4CCOCC4)cc3)c(C)c2c1,8.05
12,CC(C)(C)OC(=O)CNC(=O)c1nc[nH]c1C(=O)N1CCN(c2ccccc2)CC1,-4.58
13,Cc1nnc(NC(=O)c2cc(-c3ccco3)nc3ccccc23)s1,2.18
14,Cc1cc(C(=O)CSc2nnc(-c3ccc(F)cc3)o2)c(C)n1CC1COc2ccccc2O1 (stereo not drawn),16.2
15,COc1ccc(C)cc1N(CC(=O)NC(C)c1ccccc1)S(C)(=O)=O (stereo not drawn),-3.86
16,CCc1ccc(NC(=O)Nc2cc(C(=O)O)ccc2N2CC3CC(C2)c2cccc(=O)n2C3)cc1 (stereo not drawn),20.4
17,Cn1c(SCC(=O)Nc2ccc(Br)cc2F)nnc1-c1ccco1,-26.7
18,CC(C)CCOc1ccc(C(=O)C[N+]2(C)CCOCC2)cc1.[I-],9.61
19,COC(=O)C1=C(C)N(CC2CCCO2)C(=O)C1 (stereo not drawn),3.11
20,CN(Cc1cnn(C)c1)C(=O)C1CCC(=O)N(Cc2cccc(F)c2)C1 (stereo not drawn),-49.8
21,CC1CCCCN1CC(O)COc1ccc(OCC(O)CN2CCCCC2C)cc1 (stereo not drawn),16.4
